Source: patent publication US20200003760A1, “IN-VITRO METHODS FOR CLASSIFYING DRUGS ACCORDING TO THEIR POTENTIAL TO CAUSE LIVER CELL INJURY” (Board of Trustees of Michigan State University, priority 2018, published 2020)
At least one read-out could not be matched to a standard name with certainty.

Tested on: HepG2 cells
Assay: Drug/cytokine-induced cytotoxicity (% LDH release) concentration-response in HepG2 cells
Type: cell-based, human
Settings: for D10 IFN / D10 TNF / D10 TNF/IFN: categorical, Delta threshold 10 LDH percentage points; for D10 IFN: with IFN; for D10 TNF: with TNF; for max IFN / max TNF / max TNF/IFN: maximal LDH response; for max IFN / EC50 IFN: with IFN 10 ng/ml; for max IFN / max TNF / max TNF/IFN / EC50 / EC50 IFN / EC50 TNF / EC50 TNF/IFN: 24 h; for max TNF / EC50 TNF: with TNF 10 ng/ml; for EC10 quotient: ratio between drug/TNF and drug/VEH curves, 0 if Q = 0; for D10 TNF/IFN / EC50 TNF/IFN: with TNF and IFN; for max TNF/IFN: with TNF and IFN 10 ng/ml each; for EC50 / EC50 IFN / EC50 TNF / EC50 TNF/IFN: LDH release, NA = no statistically significant increase from min; for EC50: drug alone (VEH)
Procedure: Cells were passed or used for experiments when they reached approximately 80% confluence. Cells were used at passage 6-16.
HepG2 cells were plated at a density of 4×10^4 cells per well in black-walled, 96-well, tissue culture plates and were allowed to attach overnight before being treated with compounds. Drugs were reconstituted in vehicles consisting of sterile water or DMSO (concentration less than 0.5%). Cells were treated with various concentrations of the drug or its vehicle (control) alone or in combination with the cytokines TNF (10 ng/ml) and/or IFN (10 ng/ml) or their PBS vehicle (VEH). Cytotoxicity was evaluated as lactate dehydrogenase (LDH) activity released from the cells into culture medium using the Homogeneous Membrane Integrity Assay kit from Promega (Madison, Wis.).
Concentration-response curves were generated for 24 drugs, 14 of which are associated with human IDILI and 10 of which are not. […] This was necessary because four-parameter logistic modeling used in the statistical analysis requires well defined, sigmoidal concentration-response curves. Cells were exposed to drug/cytokine combinations for 24 hours. For analysis of drug concentration-response data, concentrations of each drug were expressed as a fraction of its Cmax.
Defining covariates: four-parameter logistic model. In the first phase, variables (potential covariates) for use in the classification analysis were defined from the analysis of drug concentration-response data. Initially, a one-way analysis of variance (ANOVA) was used as an omnibus test to determine if a particular treatment (e.g. drug alone or in combination with TNF and/or IFN) caused a significant change in LDH release relative to baseline (i.e., LDH release in the absence of drug, hereafter designated “min”). The criterion for significance for the ANOVA was set at α=0.01. A 1% level of significance was used to rule out more vigorously marginal relationships between concentration and response.
where LDH(x) is the percentage of LDH released at a given concentration x; x=[drug]/Cmax; min=the % LDH release at 0 drug concentration (i.e., baseline); and max=the maximal LDH response (i.e., maximum % LDH release).
where D10 is a categorical variable related to reaching a threshold LDH response above which a drug is classified as positively associated with IDILI. D10 is defined as 0 if Delta<10% LDH release and as 1 if Delta≥10% LDH release.
The base covariate R10 represents the [drug]/Cmax value associated with an increase in 10 LDH percentage points above min for a particular treatment condition and was determined by the equation:
R10 was considered to be 0 when the Delta<10% LDH (i.e. when D10=0).
EC50 quotient, EC10 quotient and R10 quotient represent the ratio between the EC50, EC10 or R10 of the drug/cytokine concentration-response curve and the respective value for the drug/VEH concentration-response curve. In some instances, the value derived from this calculation is indeterminate (i.e. when the denominator=0). In order to incorporate the quotient values into the classification models described below, the categorical variable “Q” was used to eliminate the possibility of the quotient being indeterminate. Q is defined as 0 if Delta VEH and/or Delta cytokine is <10% LDH and 1 if both Delta VEH and Delta cytokine are ≥10% LDH. […] The same condition was applied for calculation of EC10 quotient and R10 quotient.
Deltadiff represents the difference between the Delta of the drug/cytokine concentration-response curve and the Delta of the drug/VEH curve. In other words, Deltadiff=(Delta cytokine)−(Delta VEH). FIG. 1 graphically illustrates several of the covariates defined above. […] In addition to the covariates derived from the concentration-response curves, the maximal therapeutic plasma drug concentration (Cmax) in human patients was used in some models (Table 1).

O=C1CC2(CCCC2)CC(=O)N1CCCCN1CCN(c2ncccn2)CC1 [Buspirone]
D10 IFN: 0 (D10 = 0 when Delta ≤ 10 LDH percentage points) | D10 TNF: 0 (D10 = 0 when Delta ≤ 10 LDH percentage points) | max IFN: 18.5 % LDH release | max TNF: 18.6 % LDH release | EC10 quotient: 0

O=C(O)Cc1ccccc1Nc1c(Cl)cccc1Cl [Diclofenac]
D10 IFN: 0 (D10 = 0 when Delta ≤ 10 LDH percentage points) | D10 TNF: 1 (D10 = 1 when the Delta > 10 LDH percentage points) | D10 TNF/IFN: 1 (D10 = 1 when the Delta > 10 LDH percentage points) | max IFN: 16.2 % LDH release | max TNF: 39.0 % LDH release | max TNF/IFN: 51.2 % LDH release | EC10 quotient: 0

CS(=O)(=O)c1ccc(C2=C(c3ccccc3)C(=O)OC2)cc1 [Rofecoxib]
D10 IFN: 0 (D10 = 0 when Delta ≤ 10 LDH percentage points) | D10 TNF: 0 (D10 = 0 when Delta ≤ 10 LDH percentage points) | D10 TNF/IFN: 0 (D10 = 0 when Delta ≤ 10 LDH percentage points) | max IFN: 12.9 % LDH release | max TNF: 12.2 % LDH release | max TNF/IFN: 15.9 % LDH release | EC10 quotient: 0

CC[C@H]1OC(=O)[C@H](C)C(=O)[C@H](C)[C@@H](O[C@@H]2O[C@H](C)C[C@H](N(C)C)[C@H]2O)[C@](C)(OC)C[C@@H](C)C(=O)[C@H](C)[C@H]2N(CCCCn3cnc(-c4cccnc4)c3)C(=O)O[C@]12C [Telithromycin]
EC50: 129.7 [drug]/Cmax | EC50 IFN: 140.5 [drug]/Cmax | EC50 TNF: 95.8 [drug]/Cmax | EC50 TNF/IFN: 101.7 [drug]/Cmax | D10 IFN: 1 (D10 = 1 when the Delta > 10 LDH percentage points) | D10 TNF: 1 (D10 = 1 when the Delta > 10 LDH percentage points) | D10 TNF/IFN: 1 (D10 = 1 when the Delta > 10 LDH percentage points) | max IFN: 111.1 % LDH release | max TNF: 99.2 % LDH release | max TNF/IFN: 115.9 % LDH release | EC10 quotient: 1.6

CN(C)CCCN1c2ccccc2Sc2ccc(Cl)cc21 [Chlorpromazine]
EC50: 44.5 [drug]/Cmax | EC50 IFN: 40.5 [drug]/Cmax | EC50 TNF: 40.6 [drug]/Cmax | EC50 TNF/IFN: 36.6 [drug]/Cmax | D10 IFN: 1 (D10 = 1 when the Delta > 10 LDH percentage points) | D10 TNF: 1 (D10 = 1 when the Delta > 10 LDH percentage points) | D10 TNF/IFN: 1 (D10 = 1 when the Delta > 10 LDH percentage points) | max IFN: 93.2 % LDH release | max TNF: 97.9 % LDH release | max TNF/IFN: 96.3 % LDH release | EC10 quotient: 1.2

COc1cccc2c1C(=O)c1c(O)c3c(c(O)c1C2=O)C[C@@](O)(C(=O)CO)C[C@@H]3O[C@H]1C[C@H](N)[C@H](O)[C@H](C)O1 [Doxorubicin]
EC50: 35.4 [drug]/Cmax | EC50 IFN: 52.2 [drug]/Cmax | EC50 TNF: 7.2 [drug]/Cmax | EC50 TNF/IFN: 7.2 [drug]/Cmax | D10 IFN: 1 (D10 = 1 when the Delta > 10 LDH percentage points) | D10 TNF: 1 (D10 = 1 when the Delta > 10 LDH percentage points) | D10 TNF/IFN: 1 (D10 = 1 when the Delta > 10 LDH percentage points) | max IFN: 127.8 % LDH release | max TNF: 94.8 % LDH release | max TNF/IFN: 101.1 % LDH release | EC10 quotient: 7.0

Nc1c(CC(=O)O)cccc1C(=O)c1ccc(Br)cc1 [Bromfenac]
EC50 IFN: 41.7 [drug]/Cmax | EC50 TNF: 43.5 [drug]/Cmax | EC50 TNF/IFN: 32.5 [drug]/Cmax | D10 IFN: 0 (D10 = 0 when Delta ≤ 10 LDH percentage points) | D10 TNF: 1 (D10 = 1 when the Delta > 10 LDH percentage points) | D10 TNF/IFN: 1 (D10 = 1 when the Delta > 10 LDH percentage points) | max IFN: 17.7 % LDH release | max TNF: 36.0 % LDH release | max TNF/IFN: 42.5 % LDH release | EC10 quotient: 0

O=C(O)[C@H]1/C(=C/CO)O[C@@H]2CC(=O)N21 [Clavulanate]
EC50 TNF: 89.9 [drug]/Cmax | EC50 TNF/IFN: 78.0 [drug]/Cmax | D10 IFN: 0 (D10 = 0 when Delta ≤ 10 LDH percentage points) | D10 TNF: 0 (D10 = 0 when Delta ≤ 10 LDH percentage points) | D10 TNF/IFN: 0 (D10 = 0 when Delta ≤ 10 LDH percentage points) | max IFN: 17.3 % LDH release | max TNF: 21.2 % LDH release | max TNF/IFN: 24.1 % LDH release | EC10 quotient: 0

CC(=O)Oc1ccccc1C(=O)O [Aspirin]
EC50 IFN: 7.9 [drug]/Cmax | D10 IFN: 0 (D10 = 0 when Delta ≤ 10 LDH percentage points) | D10 TNF: 0 (D10 = 0 when Delta ≤ 10 LDH percentage points) | D10 TNF/IFN: 0 (D10 = 0 when Delta ≤ 10 LDH percentage points) | max IFN: 19.7 % LDH release | max TNF: 11.0 % LDH release | max TNF/IFN: 21.9 % LDH release | EC10 quotient: 0

CC(=O)[C@]1(O)Cc2c(O)c3c(c(O)c2[C@@H](O[C@H]2C[C@H](N)[C@H](O)[C@H](C)O2)C1)C(=O)c1ccccc1C3=O [Idarubicin]
D10 IFN: 0 (D10 = 0 when Delta ≤ 10 LDH percentage points) | D10 TNF: 0 (D10 = 0 when Delta ≤ 10 LDH percentage points) | D10 TNF/IFN: 0 (D10 = 0 when Delta ≤ 10 LDH percentage points) | max IFN: 12.2 % LDH release | max TNF: 13.3 % LDH release | max TNF/IFN: 15.6 % LDH release | EC10 quotient: 0

COc1c(N2C[C@@H]3CCCN[C@@H]3C2)c(F)cc2c(=O)c(C(=O)O)cn(C3CC3)c12 [Moxifloxacin]
D10 IFN: 0 (D10 = 0 when Delta ≤ 10 LDH percentage points) | D10 TNF: 0 (D10 = 0 when Delta ≤ 10 LDH percentage points) | D10 TNF/IFN: 0 (D10 = 0 when Delta ≤ 10 LDH percentage points) | max IFN: 11.3 % LDH release | max TNF: 9.8 % LDH release | max TNF/IFN: 14.0 % LDH release

CC(CN1c2ccccc2Sc2ccccc21)N(C)C (centres unmarked) [Promethazine]
D10 IFN: 0 (D10 = 0 when Delta ≤ 10 LDH percentage points) | D10 TNF: 0 (D10 = 0 when Delta ≤ 10 LDH percentage points) | D10 TNF/IFN: 0 (D10 = 0 when Delta ≤ 10 LDH percentage points) | max IFN: 17.2 % LDH release | max TNF: 19.4 % LDH release | max TNF/IFN: 22.1 % LDH release | EC10 quotient: 0

NNC(=O)c1ccncc1 [Isoniazid]
EC50: 457.1 [drug]/Cmax | EC50 IFN: 442.4 [drug]/Cmax | EC50 TNF: 507.2 [drug]/Cmax | EC50 TNF/IFN: 272.2 [drug]/Cmax | D10 IFN: 1 (D10 = 1 when the Delta > 10 LDH percentage points) | D10 TNF: 1 (D10 = 1 when the Delta > 10 LDH percentage points) | D10 TNF/IFN: 1 (D10 = 1 when the Delta > 10 LDH percentage points) | max IFN: 48.9 % LDH release | max TNF: 94.1 % LDH release | max TNF/IFN: 65.3 % LDH release | EC10 quotient: 1.7
